Measured values published in PubChem BioAssay AID1631 (National Center for Advancing Translational Sciences (NCATS), 2009).
Among all 260,000 compounds or so, about 890 (0.34%) were called active. The inconclusive results got no clear call from the source; some entries with a clear call stand among them for comparison. Calls follow the shape of the dose curve; as a rule, active = well fitted activation curve with a large enough effect; inconclusive = small, poorly fitted or top-dose-only effect; inactive = no such curve, though single readings can be large or run the other way. Potencies of inconclusive entries are left out as doubtful fits.

These molecules were tested against Pyruvate kinase PKM (Homo sapiens) (UniProt P14618) (assay: qHTS Assay for Activators of Human Muscle isoform 2 Pyruvate Kinase). Conditions: purified PKM2, Kinase-Glo ATP luminescence; Potency: activation; series mostly up to 57.5 µM; activation: at the top concentration.
Chain of UniProt P14618 (P14618 whole entry, looked up, canonical isoform): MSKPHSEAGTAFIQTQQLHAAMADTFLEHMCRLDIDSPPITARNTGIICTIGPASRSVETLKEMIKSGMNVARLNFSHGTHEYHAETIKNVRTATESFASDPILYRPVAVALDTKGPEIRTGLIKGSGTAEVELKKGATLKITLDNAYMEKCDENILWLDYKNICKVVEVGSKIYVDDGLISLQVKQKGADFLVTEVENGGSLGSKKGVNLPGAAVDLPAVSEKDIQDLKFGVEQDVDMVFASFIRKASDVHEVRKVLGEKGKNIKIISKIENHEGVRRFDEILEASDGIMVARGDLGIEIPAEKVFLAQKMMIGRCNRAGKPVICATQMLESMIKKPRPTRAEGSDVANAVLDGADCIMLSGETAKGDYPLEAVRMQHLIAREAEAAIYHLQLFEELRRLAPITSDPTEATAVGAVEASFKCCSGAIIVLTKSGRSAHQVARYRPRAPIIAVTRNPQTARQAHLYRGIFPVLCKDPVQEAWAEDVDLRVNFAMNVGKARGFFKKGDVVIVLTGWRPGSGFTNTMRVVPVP
Procedure, shortened: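 Purified hPK-M2 (>95% pure) converted ADP (0.1 mM final) to ATP with 0.5 mM PEP in 50 mM imidazole pH7.2, KCl, MgCl2, Tween 20, BSA; 1 h at room temperature. ATP detected by Kinase-Glo luminescence.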
% is scaled to controls: 0 for no effect and ±100 for the full control effect; potency is read from the fitted curve at half-maximal effect; tags tell the direction and shape of the fitted curve.
Also: nearly all actives have a fitted effect of over 55% in size.

Row | SMILES | Potency | activation
1 | c1cncc(CNC2CCCC2)c1 | inconclusive [rising, single point] | 
2 | Cc1cc(NC(=O)CCl)no1 |  | inactive: -5.34%
3 | COc1ccc(N2C(=O)/C(=C/c3cccs3)C(=O)NC2=S)cc1 | active: 14.1 µM | 
4 | C=C1C(=O)O[C@@H]2C[C@@H](C)[C@@H]3C4OC4C(=O)[C@@]3(C)[C@@H](O)[C@H]12 (stereo partly drawn) |  | inactive: -0.179%
5 | COc1ccc(N2C(=O)/C(=C/c3ccc(C)o3)C(=O)NC2=S)c(OC)c1 |  | inactive: 23%
6 | NC(=O)c1ccc(N=Cc2c(O)n(Cc3ccco3)c(=O)[nH]c2=O)cc1 | inconclusive [rising, single point] | 
7 | O=C1CN(C(=O)COC(=O)Cc2ccccc2)c2ccccc2N1 | inconclusive [rising, single point] | 
8 | CSc1ccccc1C(=O)C1CCCN(Cc2ccncc2)C1 (stereo not drawn) | inconclusive [rising, single point] | 
9 | O=C1c2cccc3cccc(c23)C(=O)N1/N=C/c1c(O)n(-c2ccccc2)c(=O)[nH]c1=O |  | inactive: 0.227%
10 | Cc1ccc(N2C(=O)/C(=C/c3ccc(CN(CCC#N)S(C)(=O)=O)o3)C(=O)NC2=S)cc1 | inconclusive [rising, partial curve] | 
11 | O=C(CSc1ccc(-c2ccco2)nn1)Nc1ccccc1 | active: 14.1 µM | 
12 | COc1ccc2c(c1)c(CCN1CCOCC1)c(C)n2C(=O)c1cccc(Cl)c1Cl |  | inactive: -4.28%
13 | O=c1[nH]c(=O)n(Cc2ccco2)c(O)c1C=NCc1ccc2c(c1)OCO2 | inconclusive [rising, single point] | 
14 | COC(=O)C1=Nc2ccccc2/C1=C\c1c(O)n(-c2ccc(OC)cc2)c(=O)[nH]c1=O | inconclusive [rising, single point] | 
15 | COc1ccc(CN2C(=O)NC(=O)/C(=C\c3cccc(OC)c3OC)C2=O)cc1 |  | inactive: 6.83%
16 | O=C1NC(=O)C(=Cc2csc3ccccc23)C(=O)N1 | inconclusive [rising, single point] | 
17 | CCCCn1c(NC(=O)c2ccco2)c(C(=O)OCC)c2nc3ccccc3nc21 |  | inactive: -1.28%
18 | COc1ccc(CN2C(=O)NC(=O)/C(=C\c3ccco3)C2=O)cc1 | inconclusive [rising, partial curve] | 
19 | Cc1csc(NC(=O)C2CCCN(S(=O)(=O)c3ccc4c(c3)oc(=O)n4C)C2)n1 (stereo not drawn) | inconclusive [rising, full curve, poor fit] | 
20 | c1cc2c(cc1CCNC1C3CC4CC(C3)CC1C4)OCO2 (stereo not drawn) | inconclusive [rising, single point] | 
21 | O=C1NC(=O)N(Cc2ccco2)C(=O)/C1=C/c1ccc(-c2cccc([N+](=O)[O-])c2)o1 | inconclusive [rising, partial curve] | 
22 | CCn1ccnc1CN1CCCC(C(=O)c2ccc(SC)cc2)C1 (stereo not drawn) | inconclusive [rising, partial curve, poor fit] | 
23 | C[C@@H]1CC[C@H]2[C@@H](C)C(=O)O[C@@H]3O[C@@]4(C)CC[C@@H]1[C@]32OO4 |  | inactive: 0.197%
24 | O=C1NC(=O)N(Cc2ccc(F)cc2)C(=O)/C1=C/c1cccs1 | inconclusive [rising, single point] | 
25 | N#CC1=C(N)Oc2c(c(=O)sc3ccccc23)C1c1ccncc1 (stereo not drawn) |  | inactive: 0.975%

Row | SMILES | Potency | activation
26 | Cc1ccc(N2C(=O)NC(=O)/C(=C\c3ccoc3)C2=O)cc1 |  | inactive: 0.38%
27 | O=C(O[C@@H]1Cc2c(O)cc(O)cc2O[C@@H]1c1cc(O)c(O)c(O)c1)c1cc(O)c(O)c(O)c1 | inconclusive [rising, full curve] | 
28 | CCn1ccnc1CN1CCCC(C(=O)c2cc(C)c(OC)c(C)c2)C1 (stereo not drawn) | inconclusive [rising, single point] | 
29 | COC(=O)c1cc2c(s1)=NC=NP=2(N1CCOCC1)N1CCOCC1 |  | inactive: -1.14%
30 | c1ccc(Cc2nn3c(Cn4cnc5ccccc54)nnc3s2)cc1 | inconclusive [rising, full curve] | 
31 | O=C1NC(=O)N(CCc2ccc(F)cc2)C(=O)/C1=C/c1cccs1 | inconclusive [rising, partial curve] | 
32 | CN(CCOc1ccc(C=C2C(=O)NC(=O)NC2=O)cc1)c1ccccn1 | inconclusive [rising, single point] | 
33 | O=C1NC(=S)NC(=O)C1=Cc1cccn1-c1ccc(O)cc1 | inconclusive [rising, partial curve] | 
34 | Nc1c(C(=O)NCCN2CCOCC2)c2nc3ccccc3nc2n1Cc1ccccc1 |  | inactive: -4.78%
35 | O=c1[nH]c(=O)n(Cc2ccc(F)cc2)c(O)c1C=NCc1cccnc1 | inconclusive [rising, single point] | 
36 | CSc1nc2ccccc2n1C(=O)Oc1ccccc1 | inconclusive [rising, partial curve] | 
37 | Cc1ccc(OCC(=O)N2CCN(CC3CC4C=CC3C4)CC2)cc1 (stereo not drawn) | inconclusive [rising, partial curve] | 
38 | Cc1ccc(N2C(=O)NC(=O)/C(=C/C=C/c3ccco3)C2=O)cc1 | inconclusive [rising, partial curve] | 
39 | CN1C(=O)/C(=C/c2ccc(N3CCCCCC3)o2)C(=O)NC1=S |  | inactive: -21.4%
40 | COc1cc(/C=C2/C(=O)N(c3ccccc3)N=C2C)ccc1OS(=O)(=O)c1ccccc1 | inconclusive [rising, partial curve] | 
41 | COc1cc(N2CCOCC2)ccc1/C=C1\C(=O)NC(=O)N(Cc2ccc3c(c2)OCO3)C1=O | inconclusive [rising, partial curve] | 
42 | COc1ccccc1N1CCN(Cc2ccc(Br)cc2)CC1 |  | inactive: 0.864%
43 | O=C1NC(=O)N(c2ccccc2)C(=O)/C1=C/C=C/c1ccco1 | inconclusive [rising, single point] | 
44 | O=C1NC(=O)N(Cc2ccco2)C(=O)/C1=C\c1cccn1CCOc1ccccc1 | inconclusive [rising, single point] | 
45 | O=C1NC(=O)N(CCC2=CCCCC2)C(=O)/C1=C/c1cccs1 | inconclusive [rising, single point] | 
46 | O=c1c2cc([N+](=O)[O-])ccc2nc(CN2CCOCC2)n1-c1ccccc1F | inconclusive [rising, single point] | 
47 | C=Cn1ccnc1P(=S)(c1nccn1C=C)c1nccn1C=C |  | inactive: -3.78%
48 | C=C1[C@@H](C)[C@H]2[C@H](Cc3ccccc3)NC(=O)[C@]23OC(=O)/C=C/[C@H](O)CCC[C@@H](C)C/C=C/[C@H]3[C@@H]1O |  | inactive: 6.51%
49 | Cc1cccc(N2C(=O)NC(=O)/C(=C\c3cnn(-c4ccccc4)c3)C2=O)c1 | inconclusive [rising, single point] | 
50 | CCOC(=O)c1c(C)n(Cc2ccco2)c2ccc(O)cc12 | inconclusive [rising, single point] | 

Row | SMILES | Potency | activation
51 | COCCCNC(=O)c1c(N)n(Cc2ccco2)c2nc3ccccc3nc12 | active: 25.1 µM | 
52 | COCCNC(=O)c1c(N)n(Cc2ccco2)c2nc3ccccc3nc12 |  | inactive: 11.9%
53 | CN(C)C(Cc1ccccc1)C(=O)c1cccs1 (stereo not drawn) |  | inactive: -8.35%
54 | COCC(C)OC(=O)c1c(N)n(Cc2ccco2)c2nc3ccccc3nc12 (stereo not drawn) | inconclusive [rising, partial curve] | 
55 | Cc1ccccc1N(CC(=O)NC1CCCC1)C(=O)c1csnn1 | inconclusive [rising, single point] | 
56 | O=C1NC(=O)N(c2ccccc2F)C(=O)/C1=C/c1ccc(Sc2nc3ccccc3[nH]2)o1 |  | inactive: 6.37%
57 | Nc1c(C(=O)NC2CCCC2)c2nc3ccccc3nc2n1CC1CCCO1 (stereo not drawn) | inconclusive [rising, single point] | 
58 | O=c1[nH]c(=O)n(Cc2ccco2)c(O)c1C=NCc1cccs1 | active: 28.2 µM | 
59 | COc1ccc(NP(=O)(Nc2ccc(OC)cc2)Oc2ccccc2)cc1 | inconclusive [rising, single point] | 
60 | COc1cccc(-c2nn(Cc3ccccc3)cc2C(=O)O)c1 |  | inactive: 1.25%
61 | CCN(CC)C(=O)c1ccc(NC(=O)COc2ccc([N+](=O)[O-])cc2Cl)cc1 |  | inactive: -2%
62 | CCOC(=O)c1c(C)n(Cc2ccc(F)cc2)c2ccc(O)cc12 | active: 11.2 µM | 
63 | O=C1NC(=O)N(c2ccc3c(c2)OCO3)C(=O)/C1=C/c1cccs1 | active: 11.2 µM | 
64 | C=C1C(=O)O[C@@H]2C[C@@H](C)[C@H]3C=CC(=O)[C@]3(O)C[C@@H]12 | inconclusive [rising, single point] | 
65 | O=c1[nH]c(=S)n(-c2ccc(F)cc2)c(O)c1/C=N/N1CCOCC1 | inconclusive [rising, full curve, poor fit] | 
66 | O=C1NC(=O)N(CCc2ccc(F)cc2)C(=O)/C1=C/c1ccco1 | inconclusive [rising, partial curve] | 
67 | CCN1/C(=C\C=C\C2=[N+](CC)c3ccccc3C2(C)C)C(C)(C)c2ccccc21 |  | inactive: -38%
68 | O=C(N/N=C/C1C(=O)NC(=S)N(c2ccccc2)C1=O)c1cc(Br)c(O)c(Br)c1 (stereo not drawn) |  | inactive: -1.77%
69 | O=C1C2CCN(CC2)[C@@H]1Cc1ccc2ccccc2c1O | inconclusive [rising, partial curve] | 
70 | O=C(CN1CCOCC1)c1ccc2cc[nH]c2c1 |  | inactive: 14%
71 | Cc1nn(Cc2ccccc2)c2c1C(c1ccco1)C(C#N)=C(N)O2 (stereo not drawn) | inconclusive [rising, single point] | 
72 | CC(=O)Nc1ccccc1C(=O)OCC(=O)Nc1ncccn1 |  | inactive: 1.89%
73 | CCn1cc(CN2CCCC(C(=O)c3cccc(OC)c3)C2)c(C)n1 (stereo not drawn) |  | inactive: -0.152%
